From article PMC10193233
Numbering of substitutions follows the chain as printed. Names and notes keep the numbering of the source. These are yes or no findings as the source states them, for the method shown. Binding seen in cells or lysates may run through a third protein. Some binding calls cover weakened binding; strength is not graded here. Where a sequence is shown, tags or fusion partners need not be part of it.

B1: Spo7 (WT) (protein, UniProt P18410 1-259)
chain: MEPESIGDVGNHAQDDSASIVSGPRRRSTSKTSSAKNIRNSSNISPASMIFRNLLILEDDLRRQAHEQKILKWQFTLFLASMAGVGAFTFYELYFTSDYVKGLHRVILQFTLSFISITVVLFHISGQYRRTIVIPRRFFTSTNKGIRQFNVKLVKVQSTWDEKYTDSVRFVSRTIAYCNIYCLKKFLWLKDDNAIVKFWKSVTIQSQPRIGAVDVKLVLNPRAFSAEIREGWEIYRDEFWAREGARRRKQAHELRPKSE
B2: Spo7 S141A/T142A/N143A (protein, UniProt P18410 1-259)
chain: B1 chain with S141A, T142A, N143A
B3: Spo7 L217A (protein, UniProt P18410 1-259)
chain: B1 chain with L217A
B4: Spo7 L219A (protein, UniProt P18410 1-259)
chain: B1 chain with L219A
B5: Spo7 ΔCR2 (127–143) (protein, UniProt P18410)
chain: MEPESIGDVGNHAQDDSASIVSGPRRRSTSKTSSAKNIRNSSNISPASMIFRNLLILEDDLRRQAHEQKILKWQFTLFLASMAGVGAFTFYELYFTSDYVKGLHRVILQFTLSFISITVVLFHISGKGIRQFNVKLVKVQSTWDEKYTDSVRFVSRTIAYCNIYCLKKFLWLKDDNAIVKFWKSVTIQSQPRIGAVDVKLVLNPRAFSAEIREGWEIYRDEFWAREGARRRKQAHELRPKSE
B6: Spo7 ΔCR3 (215–223) (protein, UniProt P18410)
chain: MEPESIGDVGNHAQDDSASIVSGPRRRSTSKTSSAKNIRNSSNISPASMIFRNLLILEDDLRRQAHEQKILKWQFTLFLASMAGVGAFTFYELYFTSDYVKGLHRVILQFTLSFISITVVLFHISGQYRRTIVIPRRFFTSTNKGIRQFNVKLVKVQSTWDEKYTDSVRFVSRTIAYCNIYCLKKFLWLKDDNAIVKFWKSVTIQSQPRIGAVDFSAEIREGWEIYRDEFWAREGARRRKQAHELRPKSE
B7: Spo7 S141R/T142R/N143R (protein, UniProt P18410 1-259)
chain: B1 chain with S141R, T142R, N143R
B8: Spo7 L217R (protein, UniProt P18410 1-259)
chain: B1 chain with L217R
B9: Spo7 L219R (protein, UniProt P18410 1-259)
chain: B1 chain with L219R

target: T1, Protein A-tagged Nem1 (S. cerevisiae) (UniProt P38757); experiment: co-IP; protein A-tagged Nem1 coexpressed with Spo7 (WT or mutant) in nem1Δ spo7Δ pah1Δ yeast; Nem1-PtA isolated from cell extracts by IgG-Sepharose affinity chromatography; immunoblot with anti-Nem1 and anti-Spo7; complex scored by presence of Spo7 in the affinity-purified Nem1 preparation
T1 sequence: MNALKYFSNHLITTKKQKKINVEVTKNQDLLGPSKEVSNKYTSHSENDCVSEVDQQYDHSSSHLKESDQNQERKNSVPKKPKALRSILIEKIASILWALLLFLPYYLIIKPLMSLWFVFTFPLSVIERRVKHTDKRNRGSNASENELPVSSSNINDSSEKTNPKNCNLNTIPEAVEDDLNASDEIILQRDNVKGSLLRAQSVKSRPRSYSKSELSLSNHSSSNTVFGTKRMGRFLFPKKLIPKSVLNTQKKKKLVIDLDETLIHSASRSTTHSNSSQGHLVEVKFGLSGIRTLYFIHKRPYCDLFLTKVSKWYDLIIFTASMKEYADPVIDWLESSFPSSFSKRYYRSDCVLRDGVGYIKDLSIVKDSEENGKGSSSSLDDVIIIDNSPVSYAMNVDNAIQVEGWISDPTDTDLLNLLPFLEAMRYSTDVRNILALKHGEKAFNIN

Question: How did the binding turn out when B1 was run?
Answer: binds

Question: Which binding does the source give for B2 here?
Answer: binds

Question: For B3, which binding is on record?
Answer: binds

Question: With B4 as the binder, how does the binding read?
Answer: binds

Question: With B5 as the binder, how does the binding read?
Answer: no binding

Question: For B6, which binding is on record?
Answer: no binding

Question: B7 was tested. Which binding did it give?
Answer: no binding

Question: With B8 as the binder, how does the binding read?
Answer: no binding

Question: B9 was tested. Which binding did it give?
Answer: no binding
